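Grown in 96-well plates, cells were treated for 48 hours with each compound at five concentrations. Insufficient inhibition: endpoint recorded as highest concentration tested. GI50 is the concentration that inhibits growth by half.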 The source made the active and inactive calls. Cut-off read from the data, not from the text of the source: active = GI50 up to about 1.1 µM and inactive = higher. Numbered stars: 1 amine (or outer) side, 2 acyl side, 3 side chain; on linkers, the order of the positions; unused ones are H or OH. Square brackets hold non-standard residues; d marks the D form. Peptide text beside a SMILES is read from it. * marks the point of attachment. X27 = CC(=O)N(C)SCC(N[*:1])C(=O)[*:2]; Cbz = O=C(OCc1ccccc1)*; Bn = c1ccc(C*)cc1
These molecules were tested on NCI-H322M (assay: NCI-60 cell line screen, 48 h).

SMILES | GI50
N#C[BH2-][n+]1cn(C2CC(OP(=O)(O)OCC3OC(n4ccc(N)nc4=O)CC3O)C(CO)O2)c2nc(N)[nH]c(=O)c21 (stereo unspecified) | inactive: > 100 µM
COC(=O)c1c(C)cccc1C1CN=NC12Cc1cc(C)c(C)cc1C2=O (stereo unspecified) | inactive: > 100 µM
CCC1(C)NC(c2cnccn2)=NN1c1ccc(Cl)cc1 (stereo unspecified) | inactive: 74 µM
CC(C)OC1=C(CC2(C)OCCO2)C(=O)C12OCCO2 | inactive: > 100 µM
C=C[C@@]1(C)CC2CC[C@]3(C)C(C)=CC(=O)CC3[C@]2(C)CC1O (stereo partly specified) | inactive: > 100 µM
S=C(N/N=C(/c1ccccc1)c1ccccn1)Nc1ccc(Cl)cc1 | active: 0.0546 µM
Clc1ccc(Nc2nn3c(CCCCCCCCc4nnc5sc(Nc6ccc(Cl)cc6)nn45)nnc3s2)cc1 | inactive: > 100 µM
O=C1CSC(c2cccc(Cl)c2)N1c1c(O)c(Cl)cc(Br)c1Cl (stereo unspecified) | inactive: > 100 µM
O=C(/C=C/c1ccc(Cl)c(Cl)c1)c1ccccc1Cl | inactive: 17.1 µM
COCN1C(=O)[C@@H]2CCCN2C(=O)c2cc([N+](=O)[O-])ccc21 | inactive: > 100 µM
COc1cc(C(c2ccc3c(c2)OCO3)N2C(=O)CCC2C(=O)O)cc(OC)c1OC (stereo unspecified) | inactive: > 100 µM
O[C@@]12Cc3c([nH]c4ccccc34)[C@@H]3Oc4cccc5c4[C@@]31CCN(CC1CC1)[C@@H]2C5 | inactive: 52.4 µM
COC1(OC)N=C(N)C2(C#N)C3(C(=O)N(C(C)C)N=C3C)C12C#N (stereo unspecified) | inactive: > 100 µM
O=C1CC(=O)NC(NN2C(=O)/C(=C/c3ccccc3)N=C2c2ccccc2)=N1 | inactive: > 100 µM
Cc1cc2cc3ccccc3cc2c(=O)[nH]1 | inactive: > 10 µM
O=[N+]([O-])c1cc([As](Br)c2ccc(O)c([N+](=O)[O-])c2)ccc1O | inactive: 1.74 µM
CC(C)CCS(=O)(=O)OCCCCOS(=O)(=O)CCC(C)C | inactive: > 100 µM
Cn1c(=O)c2c(O)cc(N)nc2n(C)c1=O | inactive: > 100 µM
COC(=O)C1=C(O)CCCC(CCC(C)=O)=C1 | inactive: > 100 µM
CCCCCCCCCCCC[C@H](O)[C@H]1CC[C@H]([C@H](O)CCCC[C@H](O)CCCCC[C@@H](O)CC2=C[C@H](C)OC2=O)O1 | inactive: 6.34 µM
Nc1nc(O)c2ncn(C3OC(CO)C(O)C3O)c2n1 (stereo unspecified) | inactive: 69.3 µM

SMILES | GI50
C=Cn1c([N+](=O)[O-])cnc1/C=C/c1ccc(C(=O)OCCN2CCOCC2)cc1 | inactive: > 100 µM
O=C[C@@H](CO)O[C@H](C=O)c1c[nH]c(=O)[nH]c1=O | inactive: 96.2 µM
CN1C(=O)C(O)CC1c1cccc(F)c1 (stereo unspecified) | inactive: > 100 µM
CC(C)(C)[Si](C)(C)OCC1OC(n2cnc3c(N)ncnc32)C(O)C1O (stereo unspecified) | inactive: > 100 µM
CC(=O)OCC1OC(n2cccnc2=O)C(OC(C)=O)C1OC(C)=O (stereo unspecified) | inactive: > 100 µM
CC(=O)OC[C@H]1CN(OC(C)=O)C[C@@H](n2cc(C)c(=O)[nH]c2=O)O1 | inactive: > 100 µM
COC1/C=C/C(C)C(C(C)C(OC)C(C)CCC(=O)C(C)C(CC(=O)O)OC)OC(=O)/C=C/C=C(\C)CC(OC)C(OC)C2=CC(=O)O[C@@H](C(C)C(OC)CC(OC)/C=C/C(C)C(O)C1)[C@H]2O (stereo partly specified) | active: 0.0702 µM
NC(CCOCCP(=O)(O)O)C(=O)O (stereo unspecified) | inactive: > 100 µM
COC(=O)c1ccc2cc(O)ccc2c1 | inactive: > 100 µM
CC(CC(=O)Nc1ccc(NC(=O)CC(C)/N=N\C(N)=O)cc1)/N=N\C(N)=O (stereo unspecified) | inactive: > 100 µM
CCOC(=O)c1[nH]c(COC(C)=O)c2c1CCCCCCCCCC2 | inactive: > 100 µM
Cc1cc2nc3[nH]c4c(Cl)cc(Cl)cc4c3nc2cc1C | inactive: > 100 µM
Clc1ccc(Cc2nc3cc(Cl)c(Cl)cc3n2CC2CCCN3CCCCC23)cc1Cl (stereo unspecified) | inactive: 4.4 µM
Cc1cn(CCOCCOC(=O)NC(CCCNC(=N)N)C(=O)O)c(=O)[nH]c1=O (stereo unspecified) | inactive: > 100 µM
CN(Cc1cnc2c(n1)C(N)=NN(N)N2)c1ccc(C(=O)NC(CCP(=O)(O)O)C(=O)O)cc1 (stereo unspecified) | inactive: > 25.6 µM
COc1ccc(OC(C(=O)O)c2ccccc2)c2c1CCCC2=O (stereo unspecified) | inactive: > 100 µM
O=c1c2ncn(C3CCCCO3)c2n(-c2ccccc2)c(=S)n1-c1ccccc1 (stereo unspecified) | inactive: > 73.1 µM
CCOC(=O)NC(Nc1cc(Cl)ccc1OC)(C(F)(F)F)C(F)(F)F | inactive: > 100 µM
CC1CCc2sc3nc4n(c(=O)c3c2C1)CC(C)S4 (stereo unspecified) | inactive: 25.5 µM
O=C(O)CN1CCN2CCCCCN(CC1)CCN(CC(=O)O)CC2 | inactive: > 100 µM
O=C(O)c1cccc(F)c1C(=O)c1ccc2ccccc2c1 | inactive: > 100 µM

SMILES | GI50
C=C(CN(C)C)C(=O)c1ccccc1[N+](=O)[O-] | inactive: > 73.6 µM
NC(=O)c1nnsc1NN=O | inactive: > 100 µM
Cc1cccc(C)c1NC(=O)C(=O)C(C#N)c1ccccc1 (stereo unspecified) | inactive: > 100 µM
CCn1c(=O)c2c3ccc(OC)cc3[nH]c2c2ccc(OC)cc21 | inactive: 62.8 µM
COC(=O)Nc1nc2ccc(S(=O)(=O)SC)cc2[nH]1 | inactive: 9.14 µM
C#Cc1cccc(N2C(=O)c3c(c(-c4ccccc4)c(-c4ccc(Cc5ccc(-c6c(-c7ccccc7)c7c(c(-c8ccccc8)c6-c6ccccc6)C(=O)N(c6cccc(C#C)c6)C7=O)cc5)cc4)c(-c4ccccc4)c3-c3ccccc3)C2=O)c1 | inactive: > 100 µM
Cc1cccc(/C=N/NC(=S)N2CCCC2)n1 | active: 0.126 µM
Oc1cc(-c2ccc(F)cc2)nc2ncc(Cl)cc12 | inactive: 25.1 µM
CC/C(=N/O)c1ccc(Br)s1 | inactive: > 100 µM
COc1ccc2c(n1)Sc1nc3ccccc3nc1N2 | inactive: 48.6 µM
O=S(=O)(/N=c1\[nH]c(-c2cc(O)c(O)c(O)c2)cs1)c1ccc(Cl)cc1Cl | active: 0.491 µM
O=C(NC(Cc1c[nH]c2ccccc12)C(=O)O)/C(=C/c1ccccc1O)NC(=O)c1ccccc1 (stereo unspecified) | inactive: 36.9 µM
CC1=C/C(=N/N2C(=O)/C(=C/c3ccc(Cl)cc3)N=C2c2ccccc2)CC(C)(C)C1 | inactive: > 100 µM
CC[N+](C)(CC)CCC(O)(c1ccccc1)c1ccccc1 | inactive: > 100 µM
CCOC(=O)NC(=O)c1cn(CCSCCOC(=O)NCCCCCCNC(=O)OCCSCCn2cc(C(=O)NC(=O)OCC)c(=O)[nH]c2=O)c(=O)[nH]c1=O | inactive: > 100 µM
COC(=O)Nc1nc2cc(NS(=O)(=O)c3ccc(F)cc3)ccc2[nH]1 | inactive: 34.4 µM
CC(C)(C)OC(=O)N1N=NC2C1C1CC(OCc3ccccc3)(OCc3ccccc3)C2O1 (stereo unspecified) | inactive: > 100 µM
CC(=O)N(C)SCC(NC(=O)C(Cc1ccccc1)NC(=O)OCc1ccccc1)C(=O)NC(Cc1ccccc1)C(=O)NC(Cc1c[nH]c2ccccc12)C(=O)NC(CCCCNC(=O)OCc1ccccc1)C(=O)NC(C(=O)NC(CSN(C)C(C)=O)C(=O)NC(C(N)=O)C(C)OCc1ccccc1)C(C)OCc1ccccc1 (stereo unspecified) (Cbz-F[X27]FWK(Cbz)T(Bn)[X27]T(Bn)-NH2; configuration not given here) | inactive: > 100 µM
CC(C)=CCC/C(C)=C/CC/C(C)=C/CC/C(C=O)=C/CC/C(C)=C\CC/C(C)=C/CC/C(C)=C/CC/C(C)=C/CC1=CC(=O)C=CC1=O | inactive: > 100 µM

Reference: ChEMBL document CHEMBL1201862, “PubChem BioAssay data set” (2004)
